In the supplement of paper PMC10126150:
Values marked as one replicate rest on one cluster of the flow cell; about a third of the high ones do not repeat.

Tested on: ATP
Experiment: switch fluorescence ratio, 500 uM ATP over buffer (Cy3 cluster intensity, sum of 5 cycles each) (fold (ratio)); higher = stronger signal-on switching upon ATP binding; sequences stand for … in TCGTCGGCAGCGTCAGATGTGTATAAGAGACAGTTTTTTTTTTTTTTTTTTTTTTTTT…TC
Settings: aptamer strand: ATP DNA aptamer (quencher-CACCTGGGGGAGTATTGCGGAGGAAGG + anchor), 100 nM annealed; ATP concentration: 500 uM; one replicate
Summary of the method: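 The fluorescence ratio divides summed target-cycle Cy3 intensity by summed buffer-cycle Cy3 intensity for each cluster and is averaged per switch-domain sequence. Cy3-labelled switching-strand clusters on a modified Illumina MiSeq flow-cell were annealed to 100 nM quencher-labelled ATP aptamer, then imaged in selection buffer and again after 15 min with 500 uM ATP at 22 °C. Five such cycles were run, with NaOH stripping and re-annealing between them, and clusters outside 100-1000 RFU were excluded.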
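Also: ATP exposure 15 min at 22 °C before imaging.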

| Sequence | switch fluorescence ratio |
| --- | --- |
| CCAGTGCTTC | 1.07 |
| AAAGAAAAGC | 0.981 |
| CTGTTATGAA | 1.01 |
| GCTTTACTTA | 1.03 |
| ATCATAGCGC | 1.02 |
| TACATTCTTG | 1.01 |
| GTAATCGTCG | 0.985 |
| TTTGGAGT | 1.02 |
| CTTTAGCACG | 1.01 |
| GACATGATAT | 1.01 |
| AGCGCATGGG | 1.04 |
| TTACGTATCG | 1.01 |
| TTCTCACTAA | 1.05 |
| TGGAGCTGTG | 1.2 |
| TTGAAGCAT | 0.959 |
| GTCGGATCTA | 0.998 |
| ATCCGT | 1.04 |
| CATAACGTGG | 0.973 |
| CCTGATGCTA | 1.18 |
| CTTTATAGAG | 0.977 |
| ATGCAACCGT | 1.04 |
| TTGCTGCATG | 1.07 |
| GCAATGGTTT | 1.08 |

| Sequence | switch fluorescence ratio |
| --- | --- |
| GGTAATCAGA | 1.01 |
| GTGTTAATCA | 1.01 |
| TTCTGTGCCC | 1.01 |
| GCAGTCCCTT | 0.97 |
| GAAGAGTCTA | 1.04 |
| GAGGCGAATC | 1.29 |
| AGGCTGGTAC | 1.06 |
| TCGCACCATA | 3.24 |
| AGTGAGGTTT | 0.978 |
| AGTCTATTGG | 1.02 |
| TCTTTACTTT | 1 |
| GCCTAAGCG | 0.987 |
| TTGGGGAGCA | 0.976 |
| ACTAGTGAGT | 1.04 |
| ACCTGGTTTG | 0.999 |
| AAGAGCAACG | 0.946 |
| TAGATGGCAA | 1.03 |
| TCCCCTTCAA | 2.1 |
| CATAAGATAA | 1.02 |
| CCAGGGCTAA | 1.08 |
| GGTCGTTATG | 0.997 |
| GTGGTGGGAG | 1.02 |
| TGAGTAATAC | 1.5 |

| Sequence | switch fluorescence ratio |
| --- | --- |
| GGCCTGCAAG | 1.02 |
| GAGATATCA | 1.03 |
| TTGGTGATA | 0.984 |
| CGCGTACAAT | 1.04 |
| TCAACTTATC | 1.04 |
| CTTTTGATAG | 0.999 |
| GGATCAGGAA | 0.991 |
| ACTATTAGGA | 1.03 |
| ATAGCGGACG | 1.03 |
| CCGCACAGGG | 1.93 |
| GATGCGCATT | 1.02 |
| TAAGGCGCAG | 0.973 |
| TCAACCCGTA | 0.978 |
| GAGACGATCA | 1.04 |
| CGCGGGTTCT | 1.03 |
| GGACTTAACA | 1.09 |
| GAGGGAGATA | 0.949 |
| TGCGGGTTCG | 1.08 |
| AAATACTTAG | 1.05 |
| CATGGAACGC | 1.06 |
| TCGAGGATTA | 1.05 |
| CGTAAAGGGT | 0.985 |
| GTTATAGTTC | 0.988 |

| Sequence | switch fluorescence ratio |
| --- | --- |
| TTATCCACAC | 1.01 |
| GCGAAACAAG | 1.04 |
| CCGCTATGAT | 4.73 |
| AGAAACCCAG | 1.02 |
| GAATTTACCC | 1.11 |
| TCACGGACAC | 1.33 |
| GAGGGATTGC | 0.954 |
| GGGACTTAAA | 1.02 |
| TAACGGGGCT | 1.01 |
| TTGAAGAGGG | 1.39 |
| AGCTAATATA | 1.06 |
| TCATGATTGA | 0.984 |
| TCATCGTACC | 1.21 |
| TTACAGATTG | 1.03 |
| GGGTTACTAA | 1.04 |
| CTCCAACCAG | 1.39 |
| GCCCGAGCAT | 1.22 |
| ACACTTGGAG | 1.03 |
| GTGAATAACA | 0.974 |
| AAAGGGAGTT | 0.989 |
| GTATTGAATA | 0.969 |
| AAGAAATGCT | 1.08 |
| TATACGTAG | 1 |

| Sequence | switch fluorescence ratio |
| --- | --- |
| GTCATAAAGG | 1 |
| CTTACCCTGC | 1.53 |
| ACGGAACAC | 1.75 |
| GTGTTGCAGC | 1.01 |
| ATCTGTTTAG | 0.993 |
| AAGGTGAGTC | 1 |
| AGGAAGTCTA | 1.1 |
| CGCCGTGCAG | 0.998 |
| ATCGTTTAGT | 1.05 |
| TTCGTCGGA | 1.03 |
| CGGTTCATGC | 1.05 |
| CTCGTAATGA | 1.52 |
| GACGACTTTA | 1.07 |
| AGAACGGTAA | 1.05 |
| GGGTCGTTAC | 1.36 |
| TGAGCCTACA | 1.04 |
| ACGGGTGATG | 0.985 |
| CTGGCAGGGG | 1.12 |
| TATGGGCATG | 0.961 |
| CTCGATTTT | 0.983 |
| CCTAAAGACA | 1.03 |
| AGGCCTTAGA | 1.04 |
| ATTAGTGTA | 1.02 |

| Sequence | switch fluorescence ratio |
| --- | --- |
| CGAGCGGTGA | 1.06 |
| CTATCAAGGG | 0.954 |
| TTAGTCGGTT | 0.997 |
| CGCGATGCTA | 3.83 |
| AGACTCGGGA | 0.996 |
| CCGTTGATCG | 1.02 |
| AGGTGCAGCG | 0.954 |
| CGGCTTGG | 0.978 |
| ACTTAGTTGG | 0.978 |
| CCACGAAGGA | 1.02 |
| CGCCTTGCCC | 0.989 |
| TTGAAAGGAT | 0.964 |
| GCCGGATTGT | 1.02 |
| CGGCGACATC | 1.09 |
| TTAGCAAGAT | 3.18 |
| GTGGGCTATT | 1.01 |
| CGGAAGAACA | 1.29 |
| CACATGAATG | 0.954 |
| CATCTACTTC | 1.02 |
| GCCAACAGGT | 1.26 |
| TTTCCTATGA | 1.04 |
| CCGCAGGGGC | 3.95 |
| ACGGACAGCC | 1.22 |

| Sequence | switch fluorescence ratio |
| --- | --- |
| TTTGCCTGGG | 0.986 |
| AGTGATACTT | 1.04 |
| GAGTAGTTGG | 0.904 |
| AAGGCATTGA | 1.04 |
| TACAACGCCG | 1.18 |
| CTCAGATA | 0.987 |
| AGAGCCGTTA | 1.13 |
| TAACCCATTA | 1.02 |
| ACTTGAGTG | 0.96 |
| TGTGAGCCGG | 0.977 |
| TTCATGATCT | 0.988 |
| ACCCGTTTT | 0.995 |
| GGGTAATAGG | 0.986 |
| GCGCAGCCGC | 0.97 |
| TGTAGTCGGC | 1.14 |
| GGGTTAACGC | 1 |
| AGTTAAGGGC | 1 |
| CAGCCTGAAC | 1.32 |
| GCCGCGGGGC | 1.08 |
| ATCGTAGAT | 0.979 |
